Measured values reported in PubChem BioAssay AID1963576 (National Center for Advancing Translational Sciences (NCATS), 2024).
The campaign covered roughly 46,000 compounds. About 60 (0.1%) were called active. Inconclusive results (about 3%) are left out. Calls come from the whole dose curve; as a rule, active = well fitted inhibition curve with a large enough effect; inconclusive = small, poorly fitted or top-dose-only effect; inactive = no such curve, though single readings can be large or run the other way. The list shows a part of the results.

Assay: Primary qHTS assay for Inhibitors of ovarian cancer metastasis using an organotypic tumor microenvironment (TME) model.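 For activity change, negative = inhibition: plate controls were DMSO wells for no effect and tomatine positive control wells for full effect.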 Note: nearly all actives have a fitted effect of over 65% in size.
Settings: SKOV3ip1-GFP adhesion/invasion on 3D omental model, fluorescence; series mostly up to 45.8 µM; activity change, negative = inhibition: at the top concentration
Method in brief: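 qHTS, 4-pt dose (0.36-46 umol/L); SKOV3ip1-GFP, 1,200 cells/well, no FBS; primary omental fibroblast/mesothelial co-culture 48 h pre-grown; 2 h RT + 16 h 37 C; PBS wash, 4% PFA; GFP count 488/509 nm.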

outcome, inactive:
COc1cc(C(=O)Nc2nnc(S(=O)(=O)N(C)c3ccccc3)s2)cc(OC)c1OC
COc1cc2nc(SCc3ccc(Cl)cc3)n3nc(CCn4nc(C)cc4C)nc3c2cc1OC
Cc1cc(O)c(C(c2ccccc2)N2CCC(C)CC2)c(=O)n1Cc1ccco1 (stereo not given)
Cc1cccc(NC(=O)C2CCCN2S(=O)(=O)c2cccc3nsnc23)c1C (stereo not given)
COc1ccc(CNC(=O)CCc2c(C)nn(-c3ccc(N4CCOCC4)nn3)c2C)c(OC)c1
CN(C)c1ccc(C(CNC(=O)c2ccc(C(C)(C)C)cc2)N2CCCC2)cc1 (stereo not given)
O=C(CSc1ncc2c(n1)-c1ccccc1N(Cc1ccc(Cl)cc1)S2(=O)=O)c1ccc(Cl)cc1
Cc1cccc(C)c1NC(=O)CCSc1nc(-c2ccc3c(c2)OCO3)cc(C(F)(F)F)n1
CCC1CN(C(=O)N2CCC(C(=O)NCCCc3ccccc3)CC2)c2cc(C)ccc2O1 (stereo not given)
Cc1ccccc1NC(=O)Cn1c(=O)n(CCC(=O)N2CCc3ccccc3C2)c(=O)c2ccccc21
COc1ccc(NC(=O)CCS(=O)(=O)c2cc3c(cc2C)NC(=O)CO3)cc1Cl
COc1cc(NC(=O)Cn2c(-c3ccccc3)cc(C(C)=O)c2C)cc(OC)c1
Cc1ccc(NC(=O)Cn2c(=O)n(CCC(=O)N3CCc4ccccc4C3)c(=O)c3ccccc32)c(C)c1
CC(C)CCn1c(SCc2c(F)cccc2Cl)nc2ccsc2c1=O
Cc1cn2c(=O)cc(COc3ccc(C(C)(C)C)cc3)nc2s1
Cc1cccc(C)c1NC(=O)CSc1nc(-c2cccs2)cc(C(F)(F)F)n1
CCOc1ccc2nc(NC(=O)c3nc(SC(C)C)ncc3Cl)sc2c1
Cc1c(Cl)cccc1NC(=O)CSc1nc(=O)n(CCN2CCOCC2)c2c1CCC2
CC(=O)N1CCc2c(sc3c2c(=O)n(CCc2ccccc2)c(=O)n3Cc2ccc(F)cc2)C1
CCOc1ccc(NC(=O)CCS(=O)(=O)c2cc3c4c(c2)CCN4C(=O)CC3)cc1
CCc1ccccc1NC(=O)CCc1c(C)nc2cc(-c3ccccc3)nn2c1C
CC(=O)Nc1ccc(NCc2nnc3n2CCCCC3)cc1
CCOC(=O)c1cc2c(=O)n3ccccc3nc2n(CC(C)C)c1=NC(=O)C(C)Oc1ccccc1 (stereo not given)
O=c1[nH]c(SCc2c(F)cccc2Cl)nc2c1CCCC2
COc1ccc(NC(=O)c2cc3c(C)nn(-c4ccccc4)c3s2)c(OC)c1
Cc1cc(C)cc(-n2c(SCC(=O)NC3CCCCC3)nc3c([nH]c4ccccc43)c2=O)c1
Cc1ccc(NC(=O)CCS(=O)(=O)c2ccc3c(c2)oc(=O)n3C)c(Br)c1

Activity change, negative = inhibition, inactive:
COc1ccc(-c2oc3ncn4nc(-c5cccc(C)c5)nc4c3c2-c2ccc(OC)cc2)cc1 -4.18%
COc1cc(CN(C(=O)COc2ccc(Br)cc2)c2ccccn2)cc(OC)c1OC 3.96%
COc1ccc(CNC(=O)C2CCN(c3nc4ccccc4[nH]3)CC2)c(OC)c1 -0.586%
CC(C)OC(=O)C1=CN(C(=O)c2ccc(F)c(F)c2)CC(C)(C)c2c1[nH]c1ccccc21 -21.3%
O=C(CSc1ncc(CO)n1Cc1ccccc1)Nc1nc2ccccc2s1 38.8%
Cc1ccn2c(Nc3ccc(F)cc3)c(-c3ccc(C)o3)nc2c1 -6.04%
O=C(NC1CC(=O)N(c2ccc(F)cc2)C1)c1cccs1 (stereo not given) -6.82%
CC(=O)c1sc2c(c1C)c(=O)n(-c1ccc(Cl)cc1)c(=O)n2Cc1cc(=O)n2cc(Cl)ccc2n1 -4.37%
NC(=O)c1nnn(Cc2cc(Cl)c(C(=O)c3ccc(Cl)cc3)c(Cl)c2)c1N -2.48%
Cc1nn(C(=O)c2ccc(Cl)cc2)c(C)c1Sc1ccc(Cl)cc1 1.09%
CCCCOc1ccc(OC(=O)c2sc3ncn(Cc4cccc(F)c4)c(=O)c3c2C)cc1 -20.7%
COC(=O)c1cccc(NC(=O)C2CCN(S(=O)(=O)Cc3ccccc3)CC2)c1C -0.454%
Cc1cc(NC(=O)CSc2nc(-c3ccccc3F)nc3c2c(=O)n(C)c(=O)n3C)no1 12.2%
CCCSc1nc2sc3c(c2c(=O)n1-c1ccccc1)CCC(C)C3 (stereo not given) 3.53%
CCC1=C(c2ccc(C)cc2)S(=O)(=O)N=C1N1CCC(C(=O)Nc2ccccc2C(=O)OC)CC1 1.03%
Cc1cn2c(=O)cc(COc3ccc(NC(=O)c4ccc(C(C)(C)C)cc4)cc3)nc2s1 3.56%
Cc1ccc(CCNC(=O)c2cc(-c3ccccc3)n[nH]2)cc1 8.01%
CC(=O)c1ccc(NC(=O)CSc2nnc3ccc(-c4ccc(F)cc4)nn23)cc1 -2.1%
CCN(C(=O)c1sc2nc3n(c(=O)c2c1C)CCCC3)c1ccccc1F -27.8%
Cc1ccc(C)c(NC(=O)c2cnn(-c3ccc(F)cc3F)c2C2CCNCC2)c1 0.796%
CC[C@H](CO)Nc1nc(NCc2ccccc2)c2ncn(C(C)C)c2n1 3.56%
CCOC(=O)c1ccc(NC(=O)CN2C(=O)C(C)(C)c3ccccc32)cc1 -10.7%
Cc1ccc(Nc2ccc(N3CCN(C(=O)c4cccc([N+](=O)[O-])c4)CC3)nn2)cc1 2.71%
COc1ccccc1NC(=O)CN(C)S(=O)(=O)c1cccc2cccnc12 -0.256%
Fc1ccccc1C(NCCc1ccc(Cl)cc1)c1nnc(-c2ccccc2)o1 (stereo not given) 0.599%
CCCC12CN3CC(CCC)(CN(C1)C3c1ccc(OCc3ccccc3)cc1)C2=O (stereo not given) -1.79%
COc1ccc(NS(=O)(=O)c2cc(-c3onc(C)c3C)ccc2C)c(OC)c1 -0.344%
Cc1ccc(CNC(=O)CN2Cc3ccccc3C2=O)cc1 -6.98%
Cc1ccc(NC(=O)c2cccc(C(C)(C)C#N)c2)cc1Nc1ccc2ncn(C)c(=O)c2c1 55.3%
Cc1cccc(NC(=O)c2cccc(N3CCCS3(=O)=O)c2)c1 -8.55%
Cc1ccc(C2CC(=O)n3nc(-c4ccc(F)cc4)nc3S2)cc1 (stereo not given) -0.59%
Cc1ccc(Cl)cc1NC(=O)c1sc2nc(C)c(C)c(C)c2c1N 2.77%
CCOC(=O)c1ccccc1NC(=O)N(Cc1ccc(CC)cc1)Cc1cn[nH]c1-c1ccc(OC)cc1 0.176%
CCCc1cnc2c(c1SCC(=O)Nc1ccc([N+](=O)[O-])cc1)c(=O)n(C)c(=O)n2C -2.9%
COC(=O)c1ccc2c(c1)sc(=NC(=O)c1ccc(S(=O)(=O)N3CCCCC3)cc1)n2C 4.87%
COc1ccc(C2c3c(-c4ccccc4)n[nH]c3C(=O)N2c2ccc(C(=O)O)cc2)c(OC)c1 (stereo not given) 11.2%
COc1ccc(-n2nc(C(=O)NCCc3ccc(Cl)cc3)c3c4ccccc4n(C)c3c2=O)cc1 5.65%
Cc1ccc(-c2c(CN3CCN(c4cccc(C)c4C)CC3)csc2C)cc1 -3.11%
OCCN(CCO)c1nc(N2CCCCC2)c2nc(N(CCO)CCO)nc(N3CCCCC3)c2n1 -9.23%
CC(C)NC(=O)CCSc1nc(-c2ccc3c(c2)OCO3)cc(C(F)(F)F)n1 -0.353%
CCOc1ccccc1N(CC)C(=O)c1ccc2c(=O)n3c(nc2c1)CCCCC3 -7.47%
CN(c1nccc(=O)[nH]1)C1CCN(c2nc3ccccc3n2Cc2ccc(F)cc2)CC1 12.3%
Nc1nonc1-c1nc2ccccc2n1CC(=O)Nc1ccccc1C(=O)O -3.76%
O=C(Nc1ccc(F)c(Cl)c1)C1CCCN(S(=O)(=O)c2cccc3nsnc23)C1 (stereo not given) -12.8%
CC1CCN(C(=O)Cn2c(=O)n(-c3ccc(Cl)cc3)c(=O)c3c4c(sc32)CCC4)CC1 31.6%
C[N+](C)(C)CC(=O)O -24.6%
CCc1cccc2c(-c3ccccc3)nc(SCC(=O)Nc3ccc(OC)cc3)nc12 -6.37%
CCOc1ccc(CCNC(=O)CSCc2nc(-c3cccc(C)c3)oc2C)cc1OCC 3.81%
CN(C)S(=O)(=O)N1CCC(N2CCN(Cc3ccc(F)cc3)C(=O)C2=O)CC1 5.03%
N#Cc1ccccc1Cn1c(SCC(=O)NCc2ccccc2)nc2ccccc21 -5.21%
CN(C)S(=O)(=O)c1ccc(C(=O)N(Cc2cccnc2)c2nc3c(F)cc(F)cc3s2)cc1 6.47%
CC(C)N(Cc1ccccc1)S(=O)(=O)c1ccc(N2CCCCS2(=O)=O)cc1 6.6%
Cc1cc2nn(-c3ccccc3)nc2cc1NC(=O)Cc1ccc(Cl)cc1 -2.05%
O=C(Cn1c(=O)c2cccn2c2ccc(F)cc21)NCc1cccc(Cl)c1 -4.34%
COc1ccc(-n2ccn(CC(=O)Nc3ccccc3C(F)(F)F)c(=O)c2=O)cc1OC -4.27%
CCc1ccc(-n2c(CCC(=O)O)ccc2-c2cccs2)cc1 6.91%
Cc1ccccc1NC(=O)Cn1c(=O)n(CCCCCC(=O)NCc2ccc3c(c2)OCO3)c(=O)c2sccc21 -15.6%
CCOc1ccc(NC(=O)c2sc3nc(-c4ccc(OC)cc4)cn3c2C)cc1 -7.26%
COc1cc(NC(=O)C2CCCN(S(=O)(=O)c3cn(C)cn3)C2)cc(OC)c1 (stereo not given) 2.81%
COc1ccc(-c2nsc(NC(=O)c3ccccc3Br)n2)cc1 -20.4%
Cc1ccc(Nc2ccc(N3CCN(C(=O)c4ccc([N+](=O)[O-])cc4Cl)CC3)nn2)cc1 -4.67%
O=C(NC1CC(=O)N(c2ccc(Cl)cc2)C1)C(=O)c1c[nH]c2ccccc12 (stereo not given) -7.99%
Cc1nnc(N2CCN(C(=O)Nc3cc(F)ccc3F)CC2)c2nn(-c3ccc(Cl)cc3)c(C)c12 2.87%
CC(=O)c1cccc(NS(=O)(=O)c2cccc(S(=O)(=O)c3ccc(Br)cc3)c2)c1 1.85%
COc1ccc(N2CCN(C(=O)CSCc3ccc(C)cc3)CC2)cc1 -1%
COc1ccc(-c2nc(CSCC(=O)N3CCN(c4ccccc4)CC3)c(C)o2)cc1 8.82%
Cc1c(Cl)cccc1Nc1nn2c(=O)c3ccc(C(=O)N(C)Cc4ccccc4)cc3nc2s1 0.0587%
CCOc1cc(S(=O)(=O)NCCc2c(C)[nH]c3ccc(C)cc23)ccc1Br -18.4%
